Reference: a compilation of properties of binary mixtures (doi:10.1021/acs.jced.9b01018)
Some of these densities may be calculated back from excess volumes.

Experiment: xn = mol fraction of the nth substance listed
Details: 100 kPa

CC(=O)[O-].CCCC[n+]1ccn(C)c1 + O
mass density [kg/m3]
Details	x2 = 0.012	x2 = 0.0152	x2 = 0.0163
273.15 K	1066.9	–	1066.7
274.15 K	–	1066.4	–
283.15 K	1060.6	1060.8	1060.4
293.15 K	1054.4	1054.5	–
298.15 K	1051.2	1051.1	1051.1
303.15 K	1048.1	1047.8	1047.9
313.15 K	1042	1041.6	1041.9
323.15 K	1036	1035.8	1035.9
333.15 K	–	1030.1	–
343.15 K	1024.1	1024.2	1023.9
353.15 K	1018.2	–	1018
363.15 K	1012.3	–	–
